Experimental data published in the antibiotic and cytotoxicity screens of Wong et al. (2023).
This is one part of the list.

test system: HepG2; assay: cytotoxicity call (relative viability < 0.9); conditions: 10 µM

Q: `C[C@@H]1CN([C@@H](C)CO)C(=O)c2cc(NS(C)(=O)=O)ccc2O[C@H]1CN(C)S(=O)(=O)c1cn(C)cn1` was tested. Which cytotoxicity call did it give?
A: inactive

Q: Which cytotoxicity call does the source give for `COc1ccc(S(=O)(=O)N(C)C[C@@H]2Oc3ccc(NS(=O)(=O)c4ccc(F)cc4)cc3CC(=O)N([C@H](C)CO)C[C@H]2C)cc1` here?
A: inactive

Q: `C[C@H]1CN([C@@H](C)CO)C(=O)Cc2cc(NS(C)(=O)=O)ccc2O[C@@H]1CN(C)Cc1ccc2c(c1)OCO2` was tested. Which cytotoxicity call did it give?
A: inactive

Q: For `CCCCCCCC(=O)N[C@H](CN1CCCC1)[C@H](O)c1ccc2c(c1)OCCO2`, which cytotoxicity call is on record?
A: inactive

Q: For `COc1ccc(CN(C)C[C@@H]2Oc3c(NS(C)(=O)=O)cccc3C(=O)N([C@@H](C)CO)C[C@@H]2C)cc1`, which cytotoxicity call is on record?
A: inactive

Q: Which cytotoxicity call does the source give for `CC(=O)Nc1ccc(S(=O)(=O)NC(=O)Cn2nnc(COc3ccc(C)cc3)c2-c2ccccc2)cc1` here?
A: inactive

Q: For `C[C@@H]1CCCCO[C@@H](CN(C)C(=O)NC2CCCCC2)[C@@H](C)CN([C@H](C)CO)C(=O)c2cc(NC(=O)Cc3ccccc3)ccc2O1`, which cytotoxicity call is on record?
A: inactive

Q: `Cl.Cl.NCCSSCCN` was tested. Which cytotoxicity call did it give?
A: inactive

Q: `O=C(C[C@@H]1C[C@@H]2c3cc(NS(=O)(=O)c4ccc(F)cc4)ccc3O[C@@H]2[C@H](CO)O1)N1CCCCC1` was tested. Which cytotoxicity call did it give?
A: inactive

test system: S. aureus RN4220; assay: growth inhibition call (relative growth <= 0.2); conditions: 50 µM

Q: Which growth inhibition call does the source give for `C[C@H](CO)N1C[C@H](C)[C@@H](CN(C)C(=O)Nc2cccc3ccccc23)Oc2ccc(NC(=O)C3CCCCC3)cc2C1=O` here?
A: inactive

Q: With `N[C@@H](CC(=O)O)c1cccc(O)c1` as the compound, how does the growth inhibition call read?
A: inactive

Q: Which growth inhibition call does the source give for `C[C@@H]1CN([C@H](C)CO)S(=O)(=O)c2ccc(/C=C/c3ccccc3)cc2O[C@H]1CN(C)C(=O)CN1CCOCC1` here?
A: inactive

Q: Which growth inhibition call does the source give for `CCCNC(=O)N1C[C@@H](O)COC[C@@H]2O[C@@H](CC(=O)NCc3ccncn3)CC[C@H]21` here?
A: inactive

Q: How did the growth inhibition call turn out when `COCC(=O)N(C)C[C@H]1Oc2cc(C#Cc3cccnc3)ccc2S(=O)(=O)N([C@H](C)CO)C[C@H]1C` was run?
A: inactive

Q: With `C[C@H]1CN([C@@H](C)CO)C(=O)c2cccc(NS(=O)(=O)c3cn(C)cn3)c2O[C@H]1CN(C)CC1CCCCC1` as the compound, how does the growth inhibition call read?
A: inactive

Q: How did the growth inhibition call turn out when `C[C@@H]1CCCCO[C@@H](CN(C)S(=O)(=O)c2ccc(F)cc2)[C@@H](C)CN([C@@H](C)CO)C(=O)c2cc(NS(C)(=O)=O)ccc2O1` was run?
A: inactive

Q: For `C[C@@H]1CCCCO[C@H](CN(C)CC2CC2)[C@H](C)CN([C@H](C)CO)C(=O)c2cc(NC(=O)Nc3ccc(C(F)(F)F)cc3)ccc2O1`, which growth inhibition call is on record?
A: active

Q: How did the growth inhibition call turn out when `COCC(=O)N1C[C@H](C)[C@H](OC)CN(C)C(=O)c2cc(NC(=O)c3ccc(F)cc3)ccc2OC[C@H]1C` was run?
A: inactive

Q: Which growth inhibition call does the source give for `C[C@H](CO)N1C[C@H](C)[C@H](CN(C)Cc2ccc3c(c2)OCO3)Oc2c(NC(=O)C3CC3)cccc2C1=O` here?
A: inactive

Q: For `Cc1nn(C)cc1NC(=O)C[C@@H]1CC[C@@H]2[C@H](COc3ccc(NC(=O)C4CCOCC4)cc3C(=O)N2C)O1`, which growth inhibition call is on record?
A: inactive

Q: With `COC1=C(OC)C(=O)C(CCCCCCCCCC[P+](c2ccccc2)(c2ccccc2)c2ccccc2)=C(C)C1=O` as the compound, how does the growth inhibition call read?
A: inactive

Q: With `C[C@@H]1CCCCO[C@H](CN(C)CC2CC2)[C@@H](C)CN([C@H](C)CO)C(=O)c2cc(NC(=O)Nc3ccccc3)ccc2O1` as the compound, how does the growth inhibition call read?
A: inactive

Q: Which growth inhibition call does the source give for `C[C@H](CO)N1C[C@H](C)[C@H](CN(C)S(=O)(=O)c2ccc(F)cc2)Oc2ncc(-c3ccncc3)cc2C1=O` here?
A: inactive

Q: How did the growth inhibition call turn out when `c1ccc2c(c1)Cn1nnnc1-2` was run?
A: inactive

Q: How did the growth inhibition call turn out when `C[C@H](CO)N1C[C@H](C)[C@H](CN(C)S(=O)(=O)c2ccccc2)OCCCC[C@H](C)Oc2ccc(NC(=O)Nc3ccccc3)cc2C1=O` was run?
A: inactive

Q: `C[C@@H]1CN([C@H](C)CO)C(=O)c2cc(NC(=O)Cc3ccccc3)ccc2O[C@H]1CN(C)Cc1ccc(Oc2ccccc2)cc1` was tested. Which growth inhibition call did it give?
A: inactive

Q: For `Cn1cnc(S(=O)(=O)N[C@H]2C=C[C@@H](CC(=O)N3CCN(c4ccccc4)CC3)O[C@@H]2CO)c1`, which growth inhibition call is on record?
A: inactive

Q: How did the growth inhibition call turn out when `C[C@H]1CN([C@@H](C)CO)C(=O)c2cc(C#Cc3ccccc3)cnc2O[C@@H]1CN(C)C(=O)CCN1CCCCC1` was run?
A: inactive

Q: `CC(C)NC(=O)Nc1cccc2c1O[C@@H](CN(C)C(=O)NC1CCCCC1)[C@@H](C)CN([C@H](C)CO)C2=O` was tested. Which growth inhibition call did it give?
A: inactive

Q: How did the growth inhibition call turn out when `C[C@@H]1CCCCO[C@@H](CN(C)C(=O)Nc2cccc3ccccc23)[C@H](C)CN([C@H](C)CO)C(=O)c2cc(NS(=O)(=O)c3ccc(Cl)cc3)ccc2O1` was run?
A: inactive

Q: With `CCS(=O)(=O)Nc1ccc2c(c1)C(=O)N(C)C[C@H](OC)[C@@H](C)CN(CCC(F)(F)F)[C@@H](C)CO2` as the compound, how does the growth inhibition call read?
A: inactive

Q: For `C[C@H]1CN([C@@H](C)CO)C(=O)Cc2cc(NC(=O)Nc3ccc(C(F)(F)F)cc3)ccc2O[C@@H]1CN(C)Cc1ccc(C(=O)O)cc1`, which growth inhibition call is on record?
A: inactive

Q: With `C[C@H]1CCCCO[C@H](CN(C)CC2CCCCC2)[C@@H](C)CN([C@@H](C)CO)C(=O)c2cc(NC(=O)Nc3ccc4c(c3)OCO4)ccc2O1` as the compound, how does the growth inhibition call read?
A: inactive

Q: `Nc1ccc(C(=O)N(CCO)CCO)cc1` was tested. Which growth inhibition call did it give?
A: inactive

Q: With `Cc1ccc(S[C@]2(C(=O)O)CC(=O)N(Cc3cc(C(F)(F)F)cc(C(F)(F)F)c3)[C@@H]2c2ccc(CO)cc2I)cc1` as the compound, how does the growth inhibition call read?
A: inactive

Q: Which growth inhibition call does the source give for `C[C@@H]1CN([C@@H](C)CO)C(=O)c2cccc(NC(=O)c3ccc(-c4nccs4)cc3)c2O[C@H]1CN(C)Cc1ccc2c(c1)OCO2` here?
A: inactive

Q: With `COc1ccc(S(=O)(=O)N2C[C@@H](O)COC[C@@H]3O[C@@H](CC(=O)NCCCN(C)C)CC[C@H]32)cc1` as the compound, how does the growth inhibition call read?
A: inactive

Q: With `C[C@@H](O)C#Cc1cnc2c(c1)C(=O)N([C@@H](C)CO)C[C@H](C)[C@H](CN(C)C(=O)CN1CCOCC1)O2` as the compound, how does the growth inhibition call read?
A: inactive

Q: How did the growth inhibition call turn out when `O=C(CS)NCCCCCCNC(=O)[C@@H]1C[C@@H]2C(=O)N[C@@H](Cc3ccccc3)C(=O)N2[C@@H]1c1cccc(OCCO)c1` was run?
A: inactive

Q: How did the growth inhibition call turn out when `C[C@@H]1CN([C@@H](C)CO)C(=O)c2cc(NS(C)(=O)=O)ccc2O[C@H]1CN(C)S(=O)(=O)c1cn(C)cn1` was run?
A: inactive

Q: How did the growth inhibition call turn out when `COc1ccc(S(=O)(=O)N(C)C[C@@H]2Oc3ccc(NS(=O)(=O)c4ccc(F)cc4)cc3CC(=O)N([C@H](C)CO)C[C@H]2C)cc1` was run?
A: inactive

Q: `C[C@H]1CN([C@@H](C)CO)C(=O)Cc2cc(NS(C)(=O)=O)ccc2O[C@@H]1CN(C)Cc1ccc2c(c1)OCO2` was tested. Which growth inhibition call did it give?
A: inactive

Q: With `CCCCCCCC(=O)N[C@H](CN1CCCC1)[C@H](O)c1ccc2c(c1)OCCO2` as the compound, how does the growth inhibition call read?
A: inactive

Q: Which growth inhibition call does the source give for `COc1ccc(CN(C)C[C@@H]2Oc3c(NS(C)(=O)=O)cccc3C(=O)N([C@@H](C)CO)C[C@@H]2C)cc1` here?
A: inactive

Q: With `CC(=O)Nc1ccc(S(=O)(=O)NC(=O)Cn2nnc(COc3ccc(C)cc3)c2-c2ccccc2)cc1` as the compound, how does the growth inhibition call read?
A: inactive

Q: Which growth inhibition call does the source give for `C[C@@H]1CCCCO[C@@H](CN(C)C(=O)NC2CCCCC2)[C@@H](C)CN([C@H](C)CO)C(=O)c2cc(NC(=O)Cc3ccccc3)ccc2O1` here?
A: inactive

Q: `Cl.Cl.NCCSSCCN` was tested. Which growth inhibition call did it give?
A: inactive

Q: `O=C(C[C@@H]1C[C@@H]2c3cc(NS(=O)(=O)c4ccc(F)cc4)ccc3O[C@@H]2[C@H](CO)O1)N1CCCCC1` was tested. Which growth inhibition call did it give?
A: inactive
